Over roughly 18,000 sequences, “TetR repression strength (sort-seq, GFP reporter)” has its median near 0.23; the highest 2% begin near 0.68. Some of the results follow.

The assay has as its target TetR (class B, Tn10) (UniProt P04483). Briefly: TetR repression strength (sort-seq, GFP reporter) (relative to tetO2 = 1); higher = stronger repression. The conditions noted are these: E. coli. Summed up: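 Repression strength is the top bin index plus one minus the read-weighted mean bin, relative to the unaltered operator's value. A low-copy library in E. coli SIG10-MAX randomized eight operator positions between a constitutive promoter and sfGFP, with TetR expressed constitutively; cells grew 5 h at 37 °C in LB with 50 µg/mL chloramphenicol and 10^6 were FACS-sorted into 13 bins that were each Illumina-sequenced. Three independent transformations were averaged, keeping only members with ≥30 reads in all replicates and CV ≤0.5.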
UniProt P04483, sequence (P04483 whole entry): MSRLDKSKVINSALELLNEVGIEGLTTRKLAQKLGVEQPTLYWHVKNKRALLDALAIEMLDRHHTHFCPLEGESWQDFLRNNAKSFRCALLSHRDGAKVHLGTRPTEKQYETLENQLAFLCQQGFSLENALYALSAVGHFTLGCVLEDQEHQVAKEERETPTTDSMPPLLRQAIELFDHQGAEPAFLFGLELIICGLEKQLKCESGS
The sequence TCCCGGTGAGTTTAAGAGA had a TetR repression strength of 0.0498. To TCCCAGTCAGTGACGGAGA belongs 0.337.

TCCCGTATAGTGCACGAGA: the TetR repression strength was 0.118.

Turning to TCCCGACTAGTCTGGGAGA, the TetR repression strength came out at 0.299. Sequence TCCCAGAAAGTATCAGAGA displayed a TetR repression strength of 0.376. To TCCCATAGAGTCGACGAGA belongs 0.247; to TCCCGGCAAGTTTTAGAGA, 0.0853. For the sequence TCCCCGTAAGTCACCGAGA, the TetR repression strength was 0.273. Under TCCCGGCGAGTAGTAGAGA stands 0.287. To TCCCTTCGAGTAGGGGAGA belongs 0.231; to TCCCCCCCAGTTAGAGAGA, 0.253; to TCCCTAGTAGTTTTTGAGA, 0.256. Turning to TCCCTTAGAGTAATCGAGA, the TetR repression strength amounted to 0.187. To TCCCGCCTAGTTGGCGAGA belongs 0.0841. Under TCCCAAGTAGTAAATGAGA stands 0.193; under TCCCAATAAGTGTCTGAGA, 0.465. Under TCCCGGGCAGTAGTCGAGA stands 0.373.

TCCCATAAAGTGACAGAGA registered a TetR repression strength of 0.0912.

In turn, TCCCTGCAAGTAAGTGAGA yielded a TetR repression strength of 0.135. Under TCCCGGGTAGTGCCTGAGA stands 0.159. Under TCCCTGTCAGTCAGTGAGA stands 0.135.

In turn, TCCCACCGAGTGCGTGAGA displayed a TetR repression strength of 0.253. TCCCTGCTAGTCGTTGAGA came in with a TetR repression strength of 0.423. As to TCCCGGTTAGTTTGTGAGA, the TetR repression strength stood at 0.212.

TCCCGGTAAGTGGCAGAGA: the TetR repression strength stood at 0.21. To TCCCGTGCAGTTGCGGAGA belongs 0.191; to TCCCATTAAGTGGTCGAGA, 0.235. To TCCCAAAAAGTAAAGGAGA belongs 0.351.

In turn, TCCCTGGGAGTCGTAGAGA registered a TetR repression strength of 0.111. Under TCCCGGCTAGTTGGAGAGA stands 0.225; under TCCCCCCCAGTGCAAGAGA, 0.379.

With TCCCGCGGAGTGGATGAGA, the TetR repression strength was found to be 0.257. Under TCCCCGCGAGTGAGGGAGA stands 0.124. To TCCCTAACAGTTAACGAGA belongs 0.624. Under TCCCAAACAGTACGTGAGA stands 0.253. Regarding TCCCGTATAGTGCCTGAGA, the TetR repression strength is 0.119.

As for TCCCTCTAAGTGCTAGAGA, the TetR repression strength worked out at 0.582. To TCCCCGTCAGTACTAGAGA belongs 0.286; to TCCCCGAGAGTGACGGAGA, 0.372. Under TCCCGTCCAGTGTCCGAGA stands 0.0697; under TCCCTGTGAGTATTTGAGA, 0.225. Regarding TCCCGTAAAGTGGTCGAGA, the TetR repression strength is 0.0884. Sequence TCCCGCGGAGTGCGAGAGA registered a TetR repression strength of 0.108. Under TCCCGATCAGTGAGTGAGA stands 0.62; under TCCCGGACAGTGCCAGAGA, 0.402. Under TCCCTTGCAGTATTTGAGA stands 0.436; under TCCCTGGGAGTCGACGAGA, 0.214. The sequence TCCCCTGGAGTAGGTGAGA displayed a TetR repression strength of 0.0556.

TCCCGGGTAGTTGCAGAGA showed a TetR repression strength of 0.125. Sequence TCCCTTTAAGTGTTCGAGA showed a TetR repression strength of 0.275. The sequence TCCCTCTTAGTTTTAGAGA gave a TetR repression strength of 0.213.

In turn, TCCCAGAGAGTGCAGGAGA came in with a TetR repression strength of 0.0148.

Consider TCCCACGGAGTTGTGGAGA, for which the TetR repression strength is 0.306. Take TCCCACTAAGTTAGTGAGA: the TetR repression strength was found to be 0.131. To TCCCTTCAAGTGATCGAGA belongs 0.232; to TCCCCCCTAGTGGCAGAGA, 0.263. Take TCCCCCTGAGTTGGGGAGA: the TetR repression strength is 0.307. Under TCCCGAATAGTGAGGGAGA stands 0.127.

Turning to TCCCCTACAGTGGTCGAGA, the TetR repression strength is 0.216.

As for TCCCGATCAGTGTTGGAGA, the TetR repression strength was determined as 0.213. To TCCCTAGGAGTAGATGAGA belongs 0.27. Under TCCCGAGTAGTCCTCGAGA stands 0.207.

TCCCATTCAGTAAGTGAGA showed a TetR repression strength of 0.527.

Regarding TCCCGTATAGTACTCGAGA, the TetR repression strength was 0.123. To TCCCATGCAGTGTGGGAGA belongs 0.299; to TCCCCGGAAGTGACTGAGA, 0.239; to TCCCATTTAGTGGGTGAGA, 0.0643. To TCCCAGGTAGTGCTTGAGA belongs 0.262. TCCCGACTAGTCGTGGAGA registered a TetR repression strength of 0.245. As to TCCCGCATAGTCCGCGAGA, the TetR repression strength was found to be 0.156. Under TCCCGGTTAGTTTGCGAGA stands 0.201; under TCCCTCGTAGTCGAGGAGA, 0.317. Under TCCCGCGGAGTGAACGAGA stands 0.178; under TCCCTGAAAGTGCGGGAGA, 0.127; under TCCCTGGGAGTAGTCGAGA, 0.244.

Sequence TCCCATAGAGTGGTTGAGA registered a TetR repression strength of 0.158. In turn, TCCCACATAGTGTATGAGA had a TetR repression strength of 0.288. With TCCCGCAGAGTGAGGGAGA, the TetR repression strength was found to be 0.284.

TCCCTTTTAGTGTACGAGA had a TetR repression strength of 0.207. To TCCCTCCTAGTGTGGGAGA belongs 0.194; to TCCCCTTAAGTGAAAGAGA, 0.253. TCCCTTCTAGTCAGGGAGA came in with a TetR repression strength of 0.196.

In the case of TCCCAGTGAGTAGCGGAGA, the TetR repression strength is 0.17. Consider TCCCAAAGAGTCACAGAGA, for which the TetR repression strength amounted to 0.218. As for TCCCGGACAGTCTGCGAGA, the TetR repression strength worked out at 0.172. To TCCCGAAAAGTCAAGGAGA belongs 0.398. To TCCCGCACAGTATCTGAGA belongs 0.351. Sequence TCCCTCGTAGTGGGCGAGA displayed a TetR repression strength of 0.146. The sequence TCCCATCGAGTGCCTGAGA displayed a TetR repression strength of 0.104.

TCCCCAAGAGTAAGTGAGA: the TetR repression strength was found to be 0.332. As to TCCCCCACAGTTATGGAGA, the TetR repression strength was found to be 0.151. Under TCCCGCATAGTCATCGAGA stands 0.213; under TCCCGCATAGTGGGGGAGA, 0.356. For TCCCAAAAAGTTGGCGAGA, the TetR repression strength was 0.309. As for TCCCGTAGAGTTGCGGAGA, the TetR repression strength amounted to 0.209. Under TCCCTGGCAGTTTAGGAGA stands 0.215; under TCCCGAAGAGTATGTGAGA, 0.285. In turn, TCCCGACAAGTGGCGGAGA registered a TetR repression strength of 0.184. On to TCCCTTTAAGTGTTGGAGA, for which the TetR repression strength turned out to be 0.276.

TCCCGGGAAGTGTTGGAGA yielded a TetR repression strength of 0.119.

In turn, TCCCCTTCAGTTTCTGAGA showed a TetR repression strength of 0.357. To TCCCGGGGAGTGAGAGAGA belongs 0.449.

These data come from a collection of fitness landscapes (doi:10.1038/s41467-024-54723-y).
